Laboratory results taken from the supplement of paper PMC11417369.
The other results are listed elsewhere or left out.

The sequences below were run on PF3D7_0420300 AP2 domain 1 (GST-tagged) (assay: gcPBM binding intensity (ln(normalized median fluorescence intensity)); higher = stronger DNA binding).
Procedure, shortened: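 The binding buffer was 1× PBS containing 1% milk, 0.2 mg/ml BSA, 0.5% salmon testes DNA and 0.03% Triton X-100. In it, GST-tagged P. falciparum DNA-binding domains expressed in E. coli were applied for 1 h to an Agilent 4 × 180k array of primer-extended double-stranded 36-bp intergenic genomic probes plus negative controls. Binding intensity, read with Alexa488 anti-GST antibody and a 488 nm scan, is the highest Masliner-normalised natural-log median intensity across replicate spots of either probe orientation.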

Row | Sequence | gcPBM binding intensity (ln)
1 | GTCAACAAGAATTAAGTGCATAATTTTTTATTAAAT [GTGCAC_site9492] | 9.08
2 | ATATAATAATAATATTGTACAATAAAAAATATATAT [XGTACX_site7350] | 9.49
3 | ATACAGATAGGATGCACACATAATTCAAATACAATA [CACACA_site4531] | 9.58
4 | ATGTCAAGAACTGAACGTACAAACTTTGTAATATTG [XGTACX_site8754] | 9.28
5 | AGTAATAATCGGCATGCATGTCAGTGGTAGTATATA [TGCATGCA_site312] | 9.62
6 | AAATTTTATGTATAATGTACACATAAATTTTTCTTT [XGTACX_site7266] | 9.06
7 | AAGGAATGCATATAGGTGCTACACATAAAAATAAAA | 9.42
8 | TACTTTTTTCCTATTATGTTTCTTATTTTTATAAAT [XGTACX_negctrl_site561] | 9.6
9 | TTAAGTAGTACATACACACACATATACAAAAAGAAA [CACACA_site3972] | 9.94
10 | TTTTTTTTTGAAAAAAGTACTTAATTTTTAAGAAGA [XGTACX_site3591] | 8.33
11 | TCTAATAATAAATACACACACATATATATTTATATA [CACACA_site5169] | 9.75
12 | ACATACATATATTTATGTACATATATATTTATGATT [XGTACX_site6485] | 9.21
13 | TTTTGGTGTATAGTATTAATATAAAATAATTATATT [CACACA_negctrl_site47] | 9.18
14 | AATTTATATTTATGTGCATGTAATAACTGTATATAA [TGCATGCA_site349] | 9.21
15 | TAAACATTCTTATATAGTACCCATATTAAAATATAC [XGTACX_site8014] | 9.12
16 | TTAGCTTATCATTACTGTACTTTATTCATATATATG [XGTACX_site8008] | 9.48
17 | ATTTTTTTTTCTTGTACACACTATTTTATAATTTTA [CACACA_site6102] | 9.78
18 | TATAAAAAAAAAAAAAAAAAAAAAAATATATATATA [CACACA_negctrl_site817] | 9.02
19 | TATTATTTTTCATATGCATGCAAAAATAAAAAAATA [TGCATGCA_site350] | 8.84

Row | Sequence | gcPBM binding intensity (ln)
20 | ATTTTTTTGTATATATATGACTGGGGATATAATCAA [GTGCAC_negctrl_site274] | 9.22
21 | AAAAAAAAAAAAAATTGTACTTAAATATATATATAT [XGTACX_site7604] | 9.04
22 | AAATTAAAATAAAATAGTACATATATTTATATTTTT [XGTACX_site1687] | 9.13
23 | TCAATAATAAAAAACACACACAAAAAAAAATAATTA [CACACA_site2798] | 9.89
24 | AACAAAGTCATACATACATACATATATATATATATA [GTGCAC_negctrl_site632] | 9.2
25 | AAAAAAAAAAAAAAAACACACATACACATATATTTT [CACACA_site7768] | 9.58
26 | TATATTATTTATAGTAGTACATAAAATATAAATATT [XGTACX_site4417] | 9.03
27 | ATAATACATACATACATACACACATATATATATATT [CACACA_site3576] | 9.67
28 | TATTGTATTTCATATTGTACTAAAAAAAAAAAAAAG [XGTACX_site6694] | 8.89
29 | TAAAAAAAAAAAAAAACACACATATAAATATTTATA [CACACA_site6702] | 9.45
30 | TACATATATATATATGAACACACAAAAAGAATATTT [CACACA_site8421] | 9.58
31 | ATAAGCATACATATTACACACATATAATATATATAT [CACACA_site2487] | 9.57
32 | AGTGGATAAATTTATTCACACATTTTTTTTTTTTTT [CACACA_site5914] | 9.15
33 | TCTTACTAATTTATGGGGACTTATCACCTATTCAGT [CACACA_negctrl_site652] | 9.12
34 | TTTTATGAGAAACACACACACAAAAAAAAAAAAAAA [CACACA_site4129] | 9.49
35 | CATGAATCCTAATAATGTACATAAGAATTCATAATG [XGTACX_site1607] | 9
36 | TTATATATATGACTTTGTACATATACATATTTTTTA [XGTACX_site4669] | 9.21
37 | GTATATTTTATTTTATGTACATATTCATTTTTTATT [XGTACX_site561] | 9.68
38 | TCTCTTTTTCGTTCATGTACAAATAAATAAAAATAT [XGTACX_site6558] | 9.11

Row | Sequence | gcPBM binding intensity (ln)
39 | TATTATATATATGCACGTACAAAAATAATAAAGGTA [XGTACX_site3506] | 9.38
40 | GTGGATATATGTATATGTACATATGTATGTATATAT [XGTACX_site2412] | 9.4
41 | ATTTTTTTACTGGATCCATATTTGCTTTTTTATTTA [CACACA_negctrl_site1108] | 9.72
42 | TATTAATAATTTTCATGTACATATGTATTTGTAATA [XGTACX_site858] | 9.18
43 | ATATAATAAATGTCATGTACATACAACATTTTAACT [XGTACX_site7517] | 9.22
44 | TGAATAAAGAAACACACACACATATATATATATGTA [CACACA_site17] | 10
45 | TTTTTAATTTACTGTCATAGGTACCTTAACTTATCA [CACACA_negctrl_site1664] | 9.06
46 | TACTTATGTTCGCACACATGCAAATTAAAAAAAAAA [TGCATGCA_site1023] | 8.96
47 | TACATATACATATTGTGTACATAATAATTATTTATA [XGTACX_site7884] | 9.15
48 | TTAATTAAGAAACACACACACATATATATATATATT [CACACA_site2290] | 9.97
49 | AGCAACTAAAAAGGATACCCCATTAAAAAAAAATTA [XGTACX_negctrl_site489] | 9.08
50 | TGTGTATAAAAAAAGTGTACACAAAGTAAGACTTTA [XGTACX_site3759] | 9.23
51 | TACCAAAAAACGGCACGCATATGTATAAGAATATGT [XGTACX_negctrl_site470] | 9.27
52 | AAATATATAAAAGTATGTACATATGAAAAATATATA [XGTACX_site6165] | 9.54
53 | TTATAAAGAATTAGGAGTACAAATGCATATATAATA [XGTACX_site6580] | 9.35
54 | TTATATAACATAACGATGTTTCAAAACATATTGTAT [CACACA_negctrl_site997] | 9.16
55 | TTTAAAATTTAATTTTGTACATATACCAATTTTATT [XGTACX_site448] | 9.01
56 | AATTAGCATAAATGGGTGCTACACAAAAATGCATGT [GTGCAC_site9640] | 9.29
